Source: article PMC12136788
The other results are listed elsewhere or left out.

T1: UNK ZnF1-3 (human, UniProt Q9C0B0 31-174)
T1 sequence: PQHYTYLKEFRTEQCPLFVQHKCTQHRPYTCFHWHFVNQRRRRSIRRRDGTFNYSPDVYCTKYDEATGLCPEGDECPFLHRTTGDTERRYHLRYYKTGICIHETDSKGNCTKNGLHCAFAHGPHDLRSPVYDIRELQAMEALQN

B1: chr6:110421769:110421770:-_ENSG00000112290_ENST00000392587|hu_mus|motif|central (ssRNA)
RNA: GGGAGUUCUACAGUCCGACGAUCGCUUUCUUACUCCAGCCAGUCUACUUCAUCGAACUCCGAGUCAUCUUCCGAGUCGCGGUACUCCACAGCAAUGCGGCGAGACAGGAUGGUGGCCACGUCGUUUUCAAUCCGCUCGUGUUUCAACAGAGGAUUGAGCAUCA
B2: chr9:95013113:95013114:-_ENSG00000196305_ENST00000443024|hu_hu|hu_hu_hu_mus_False|78_78 (ssRNA)
RNA: GGGAGUUCUACAGUCCGACGAUCCUCAGUCAGAAAGGGCGUGUAAGGGGCCAUCAGUCUGCAAAGAGAAAGCAGGACACUGAACAGUGUCUCCAGAGCCAUGACACAGUCUUCCACCCCACUCUCACCCUUUAACCUCCUCCUCAACAGAGGAUUGAGCAUCA
B3: chr12:39756943:39756944:-_ENSG00000139116_ENST00000544797|hu_mus|hu_hu_hu_mus_False|58_68 (ssRNA)
RNA: GGGAGUUCUACAGUCCGACGAUCGGUUUGGCUGUUACCCCCAAGGGAAUCCUGCAAGAGUCUUGUCAGCUUGGAAUCUCUAUAGGGGACAUGGGUGGCUCUCUUGCUCUUGUCCCCCAAGGCGCUGAUUACAUUCCCAAGAGCCAACAGAGGAUUGAGCAUCA
B4: chr7:149068622:149068623:-_ENSMUSG00000025139_ENSMUST00000001950|mus_hu|mus_mus_mus_hu_False|18_38 (ssRNA)
RNA: GGGAGUUCUACAGUCCGACGAUCGUGAGGCCUCUGAGUGUGGCUUGUGGUCUGUCCUGGGUUAGAGUUGUUAAUAUCACGGAACAUACCAUCUAGAGAGGUUCUGCCCCGCCUGACCAUCCACCCUCCAAUGGAGAAGAAAUCCAACAGAGGAUUGAGCAUCA
B5: chr4:129324761:129324762:-_ENSMUSG00000003731_ENSMUST00000102590|mus_hu|FALSE|FALSE (ssRNA)
RNA: GGGAGUUCUACAGUCCGACGAUCCAAGCGUACAAGAUUAAUAUUCUGUCAGAGCAAGAACACUUUGUUUUGGAUUUCUCCCUUCCCCUCCCACCUCCCACCUCUGGAAUAUACCGUCUGCUCAAGUACCCAAGAUAAGAGUUACAACAGAGGAUUGAGCAUCA
B6: 52911994_52912114_3718_CDS_ENSG00000134744_ENST00000257177|human|control|control (ssRNA)
RNA: GGGAGUUCUACAGUCCGACGAUCCUGCCGAAUGCUAAUUACAUAUUCCUUGAAAUCAAACUCUUCAGUAUAGAAACGAAGCAGUCCCAGCCAAAGCUCCCCUAAUGAUUCUGUGUUCUUUCCAAGUGAAGGUAAACGCUUUUUCAACAGAGGAUUGAGCAUCA
B7: chr11:86516163:86516164:-_ENSMUSG00000047126_ENSMUST00000103186|mus_hu|FALSE|FALSE (ssRNA)
RNA: GGGAGUUCUACAGUCCGACGAUCAAGGCUGUCUUUCUUGCACAGCUCUACACUCUGUUUCCAGCGAUUGUUGCCUUUGAAGAGAUAAGCAGCAAUUCUCCUGAACUCAAUGAGUUCAUGUUUUUCCAAACGCUGAGCAAGCGACAACAGAGGAUUGAGCAUCA
B8: chr1:44133529:44133530:+_ENSG00000066135_ENST00000372396|hu_hu|FALSE|FALSE (ssRNA)
RNA: GGGAGUUCUACAGUCCGACGAUCAAACUCAGCUGCUUCUGGCGUGGGCAGAGUAUGGUCAAUAACUGUGUUGUCCUUCCCAGCUUUCCAAAGUUUGUACCUUUCUGGCUGGAACUUUCUCACAAACACAUCCAUGGAGAUCUUCAACAGAGGAUUGAGCAUCA
B9: chr2:30381511:30381512:+_ENSG00000119801_ENST00000261353|hu_hu|motif|central (ssRNA)
RNA: GGGAGUUCUACAGUCCGACGAUCCAUGUGGCGGCCAGUGAGCAUGACCCGAUCUUGAACUUCACUGUACUGCAGGUUAACGGCCUUGUUAAAAAGAAAUGCUCUGCCAGUGGCGCCUGUGAAACGAGUGGAGAUGAGUUCUGACAACAGAGGAUUGAGCAUCA
B10: chr7:36506639:36506640:-_ENSMUSG00000043671_ENSMUST00000051377|mus_mus|FALSE|FALSE (ssRNA)
RNA: GGGAGUUCUACAGUCCGACGAUCGAACAGCACCAGUGCCUGCAGCAGCAUCAUGAACUGGUUAAAUUGCCAUGUCAGGCUAAAGAGAAAAGUUGAUACGAAAAUGGCAAGAAGUGUCAGCCUUUCAGAAAGAGGCUGUAAAUUCAACAGAGGAUUGAGCAUCA
B11: 33597688_33597808_1080_3pUTR_ENSMUSG00000042834_ENSMUST00000171533|mouse|control|control (ssRNA)
RNA: GGGAGUUCUACAGUCCGACGAUCUCUAGAGAAGAACAUUCCAGGAAACAAAGUACCGACACCUUCUUAGAACAUGGAAAUAAAAACAACUCCACCAGAGCUACCUCGCCAAGGAGCAUGUUGAAAGUCCAAAAUAGCACCAUUCAACAGAGGAUUGAGCAUCA
B12: 53565299_53565799_12336_CDS_ENSG00000086758_ENST00000262854|human|control|control (ssRNA)
RNA: GGGAGUUCUACAGUCCGACGAUCGCGCUUGACAUCAAAGUCGAGGACACGAAUGUAGUCUACCAGGACAGCAAAAGGCCCAUCAGCAAGGUGGGUCGUGGACUGCCGUAGGAUCUGGUUUAACACAGUGCGGUGAGUCUCUGCCAACAGAGGAUUGAGCAUCA
B13: 32701355_32702498_6989_CDS_ENSG00000115760_ENST00000421745|human|control|control (ssRNA)
RNA: GGGAGUUCUACAGUCCGACGAUCUGUGUCUAAAUUAGAACGGGACCAUUCUGCUGUCCGACGUAAACGAAUUAAAUCCUUAAAGUGCUUUGAAGUGGCCUGCUUUAGUUUUGCUUGUUCUACCAGGAGUUUAUAUGAUGAUCCCAACAGAGGAUUGAGCAUCA
B14: chr2:202488911:202488912:-_ENSG00000155755_ENST00000286196|hu_mus|hu_hu_hu_mus_False|48_68 (ssRNA)
RNA: GGGAGUUCUACAGUCCGACGAUCAUUGAAACAUUUUUCAUAAUCUCCAGUAGCAUUUCAGCAUUAUUAAUCAAAAACUCAAUUGUAAAUACACAUGUCUUAUAAAAAUACACUUAAAAACACGAGUGGGGAGCGCAGGCGCCACAACAGAGGAUUGAGCAUCA
B15: chr11:57381840:57381841:+_ENSG00000149131_ENST00000378324|hu_hu|FALSE|FALSE (ssRNA)
RNA: GGGAGUUCUACAGUCCGACGAUCCAGUUCCAGCACUGUCUGGUGCUGCAUCGCAGAAACCUGAAGAUCUGGGUCCUCUGUCAGCCCACACAGGUUAAGGUCAUAAGAAAAAUCGAAGAAUUCCAAUUUCUCCAUGAUUGAGAGCAACAGAGGAUUGAGCAUCA
B16: chr10:33190432:33190433:-_ENSG00000150093_ENST00000302278|hu_mus|hu_hu_hu_mus_True|58_88 (ssRNA)
RNA: GGGAGUUCUACAGUCCGACGAUCUACAUUUUCCAAACCUGCAUGUGAGUAAAACCAUGGCCACAGAGCCCCAAAACUACCUAACUGUGACUAAGAUGCUGCUGCUGUGAGCUUGGUGUUGCAAAAUCCGCCUGAGUAGGAUUCCAACAGAGGAUUGAGCAUCA
B17: chr3:10015032:10015033:+_ENSMUSG00000027533_ENSMUST00000029046|mus_mus|FALSE|FALSE (ssRNA)
RNA: GGGAGUUCUACAGUCCGACGAUCGUUGUUGCCAUCACACGUAAUGAUACAGUCUGGCUUGGCCAUGGCAGCCAUCUUCCUAAGAGCCAGUCCUACUCCUAGCUCUUUCAUGUACUCCUCAAAGCCGUGGCUUUCCAUCAGGCGCAACAGAGGAUUGAGCAUCA
B18: chr17:60770872:60770873:+_ENSG00000011028_ENST00000303375|hu_hu|hu_hu_hu_mus_True|38_38 (ssRNA)
RNA: GGGAGUUCUACAGUCCGACGAUCUCUUUAAAAAAAAAAAAAAAAAGACAAACAAUAAUAGCACAUUUCGAGAAUCAAGAACUACAAUAGAGGGUCCAUGUCUUCGAUUUGUUCACAUCGUCCUGCACUGGGACACGGGGACUGCAACAGAGGAUUGAGCAUCA
B19: chr11:95591783:95591784:-_ENSG00000087053_ENST00000352297|hu_hu|FALSE|FALSE (ssRNA)
RNA: GGGAGUUCUACAGUCCGACGAUCCUCAAAUAUGGAUCUUCUUGUCCGCCCCUCAGGUUUAUGAGCAAAUCGUAAAUUCCUAAUAUCCUUACACACAGUUUCUAGUCCAUAAGAAUUUUCACCUCGACUAGAAGCACCACCAAUCAACAGAGGAUUGAGCAUCA
B20: chr16:13687521:13687522:+_ENSMUSG00000022684_ENSMUST00000023365|mus_hu|FALSE|FALSE (ssRNA)
RNA: GGGAGUUCUACAGUCCGACGAUCGGCUGCAAGACUUUGGACUAUGUCAUUAUUCUGCUGAAUGUCUUCAAAUCUCAGUCUAAUGGCAUCAGGAAAUAACUUUUCAAUGGCAUCCCUGAGGAGAAUACUGACUUUGGGGAAACCCAACAGAGGAUUGAGCAUCA
B21: chr5:4806447:4806448:-_ENSMUSG00000028926_ENSMUST00000030763|mus_hu|FALSE|FALSE (ssRNA)
RNA: GGGAGUUCUACAGUCCGACGAUCAGCAUAAAAACCUUUACAGAGACGCUGUGCUGCAGAGGGAAAUCAAACAAAAUCAAACACAAAAGACUGAAAAGAAUACAUGCCAUGUAUCAGUAAGCAAAGCUUAAUCUUCACGUAGUUCAACAGAGGAUUGAGCAUCA
B22: 25244040_25248577_2582_CDS_ENSMUSG00000034295_ENSMUST00000037097|mouse|control|control (ssRNA)
RNA: GGGAGUUCUACAGUCCGACGAUCACACUGUCCAUUCACACCCACAUCCUGAAGGCUGGUGGACCACAAACCGGUCGCCCUGUCUUCAGACAGUUUGUCUUCCUUCUCUUCCCUCUCCAAGGUGCUGCUGGAGGACGAGAUGCUCAACAGAGGAUUGAGCAUCA

target: T1, UNK ZnF1-3; test: nsRBNS (natural sequence RNA bind-n-seq); RBNS binding buffer (assumed for nsRBNS): 25 mM Tris pH 7.5, 150 mM KCl, 3 mM MgCl2, 0.01% Triton X-100, 500 ug/ml BSA, 20 U/ml SUPERase-In, 4 C; UNK is unkempt and MSI1 is Musashi-1; names of the RNAs are library labels; protein concentration not given here; high values mean tight binding

Row | Binder | binding signal [enrichment R]
1 | B1 | 0.613
2 | B2 | 1.44
3 | B3 | 0.708
4 | B4 | 0.75
5 | B5 | 0.879
6 | B6 | 1.12
7 | B7 | 0.578
8 | B8 | 0.628
9 | B9 | 1.1
10 | B10 | 1.75
11 | B11 | 2.04
12 | B12 | 0.651
13 | B13 | 1.38
14 | B14 | 1.57
15 | B15 | 0.765
16 | B16 | 1.15
17 | B17 | 0.459
18 | B18 | 1.9
19 | B19 | 1.05
20 | B20 | 0.931
21 | B21 | 1.97
22 | B22 | 0.892
